Laboratory results from patent US20250326835A1, “USE OF ANTI-CLAUDIN-1 ANTIBODIES TO TREAT CHOLANGIOCARCINOMA” (Alentis Therapeutics AG, priority 2022, published 2025).

Test system: EGI-1 CCA cells
Test: Western blot signaling studies in EGI-1 and EGI-1/LX2 cell-based models
Parameters: species or system human
Settings: EGI-1 cells, 10 μg/mL for 2 days
Method: To corroborate the effect of the anti-CLDN1 mAb H3L3 on CCA signaling observed in vivo (FIGS. 4A-4C), additional signaling studies were performed in CCA cell-based models. The CCA models consisted of 1.5×10^5 EGI-1 CCA cells or a co-culture of CCA EGI-1 with LX2 stellate cells (ratio 1:5) treated with anti-CLDN1 mAb H3L3 (Colpitts et al., 67(4) Gut 736-745 (March 2017)) (10 μg/mL) or isotype control mAb (10 μg/mL) for 2 days. At day 2 post-treatment, cells were stimulated with TNF-α (10 ng/mL) for 24 hours to assess SRC and FAK signaling, or Jagged-1 (50 ng/mL, SRP8012, Sigma-Aldrich) for 24 hours to assess Notch1 signaling. For protein extraction from cell cultures, cells were lysed using Glo lysis buffer (E2661, Promega) supplemented with protease and phosphatase inhibitors (78442, Halt™ Protease and Phosphatase Inhibitor Single-Use Cocktail, Thermo Fisher) for 20 minutes at 4° C. Samples were then centrifuged at 15000 rpm for 10 minutes and the supernatant was collected. Protein quantification was performed using the Bio-Rad DC assay Kit. Gels were prepared following the Biorad TGX gel protocol (BioRad). Gels were transferred using the Biorad trans blot turbo protocol (BioRad) into PVDF membranes. Blocking of the membranes was performed with 5% BSA in TBS-T for 1 hour. The membranes were incubated with anti-SRC Rabbit mAb (#21085, Cell Signaling Technology), Phospho-SRC (Tyr416) Rabbit mAb (#21015, Cell Signaling Technology), anti-Notch1 (D1E11) XP® rabbit mAb (#3608, Cell Signaling Technology), anti-cleaved Notch1 (Val1744) (D3B8) rabbit mAb (#4147, Cell Signaling Technology), anti-FAK rabbit mAb (#3285, Cell Signaling Technology), anti-phospho-FAK (Tyr576/577) rabbit mAb (#3281, Cell Signaling Technology) and anti-β-actin antibody (Sigma) in 5% milk in TBS-T for 2 hours at room temperature. Secondary antibodies used were peroxidase AffiniPure goat anti-rabbit IgG (H+L) mAb (Jackson ImmunoResearch) or ECL mouse IgG, HRP-linked whole Ab (Amersham). Protein immunodetection of the membranes was performed with Clarity ECL Western Blot Substrate (Biorad) in a ChemiDoc MP Imaging System (Biorad). Each experiment was independently repeated at least three times.

[1] = Jagged-1 stimulation, vs isotype control mAb
[2] = TNF-α stimulation, vs control-treated cells

B1: anti-CLDN1 mAb H3L3: humanized anti-Claudin-1 monoclonal antibody; heavy chain SEQ ID NO: 11, light chain SEQ ID NO: 12 (VH SEQ 13, VL SEQ 14) (antibody)
heavy: QVQLVESGGGVVQPGRSLRLSCLGSGFSFSSYGMNWVRQAPGKGLEWVASISPSGSYFYYADSVKGRFTISRDNSKNTLYLQMTSLRAEDTAIYYCARLPGFNPPFDHWGQGTLVTVSSASTKGPSVFPLAPSSKSTSGGTAALGCLVKDYFPEPVTVSWNSGALTSGVHTFPAVLQSSGLYSLSSVVTVPSSSLGTQTYICNVNHKPSNTKVDKRV[no letters for human IgG1 Fc]
light: DIQMTQSPSSLSASVGDRVTITCKASQNVGGNVDWYQWKPGKAPKLLIYGASNRYTGVPDRFRGSGSGTDFTLTISSLQPEDVATYYCLQYKNNPWTFGGGTKVEIKRTVAAPSVFIFPPSDEQLKSGTASVVCLLNNFYPREAKVQWKVDNALQSGNSQESVTEQDSKDSTYSLSSTLTLSKADYEKHKVYACEVTHQGLSSPVTKSFNRGEC
modifications: H3L3 Heavy Chain; H3L3 Light Chain
In the case of B1, the “Hes1 (downstream target of Notch1)” value [1] is reported as “robust decrease”, the “cleaved Notch1” value [1] is reported as “robust decrease” and the FAK phosphorylation [2] is reported as “reduced”. For the same molecule, the SRC phosphorylation [2] was “reduced”.
